The other results are listed elsewhere or left out.

This assay addresses T1, MBP-FoxP1dN (Mus musculus, UniProt P58462 326-579).
T1 sequence: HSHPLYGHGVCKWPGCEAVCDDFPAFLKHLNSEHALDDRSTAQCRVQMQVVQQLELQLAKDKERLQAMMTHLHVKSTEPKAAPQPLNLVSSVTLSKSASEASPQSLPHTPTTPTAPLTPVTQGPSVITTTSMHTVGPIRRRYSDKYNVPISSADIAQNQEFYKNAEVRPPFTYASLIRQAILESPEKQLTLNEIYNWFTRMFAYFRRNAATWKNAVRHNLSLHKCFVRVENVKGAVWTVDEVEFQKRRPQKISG
The assay is described as follows: PD-seq (MBP pull-down with sequencing); 20 mM Tris-HCl pH 7.5, 100 mM NaCl, 1.5 mM MgCl2, 0.4 uM protein, 0.1 uM dsDNA library, 30 min, room temperature, amylose pull-down; high values mean tight binding. The following applies: protein: recombinant; tags: His6-MBP; chain copies: 2; dsDNA, one strand shown. The procedure, abridged: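 Binding is reads-per-million enrichment of pull-down over input, with replicates pooled. It comes from 30 min room-temperature incubation in Tris pH 7.5 buffer with NaCl and MgCl2 of 0.4 µM His6-MBP-tagged, N-terminally truncated mouse FoxP3 or FoxP1 fragment from E. coli with 0.1 µM Klenow-filled degenerate double-stranded DNA library, followed by amylose resin capture, three washes and Illumina sequencing of the released DNA.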
As for “GATGATTGTTCTCCCAGCTGATGAATTCTTGACCTCGAGTAAACAAATTTTCCTAATCTTTCTGTTCAAGCGCCATCTAC”, the binding signal is 0.786 RPM ratio (pull-down/input).
In the case of “GATGATTGTTCTCCCAGCTGATGAATTCCTGAGCTCGAGTAAACAAATTTTCCTAATCTTTCTGTTCAAGCGCCATCTAC”, the binding signal is 0.782 RPM ratio (pull-down/input).
Regarding “GATGATTGTTCTCCCAGCTGATGAATTATGGTTATCGAGTAAACAAATTTTCCTAATCTTTCTGTTCAAGCGCCATCTAC”, the binding signal is 1.06 RPM ratio (pull-down/input).
For “GATGATTGTTCTCCCAGCTGATGAATTCGACGCATCGAGTAAACAAATTTTCCTAATCTTTCTGTTCAAGCGCCATCTAC”, the binding signal is 1.09 RPM ratio (pull-down/input).
Consider “GATGATTGTTCTCCCAGCTGATGAATTCTGCCTTTCGAGTAAACAAATTTTCCTAATCTTTCTGTTCAAGCGCCATCTAC”, for which the binding signal was 0.913 RPM ratio (pull-down/input).
Take “GATGATTGTTCTCCCAGCTGATGAATTCGCCGCTTCGAGTAAACAAATTTTCCTAATCTTTCTGTTCAAGCGCCATCTAC”: the binding signal was 0.868 RPM ratio (pull-down/input).
As to “GATGATTGTTCTCCCAGCTGATGAATTCTTGGGCTCGAGTAAACAAATTTTCCTAATCTTTCTGTTCAAGCGCCATCTAC”, the binding signal is 0.749 RPM ratio (pull-down/input).
For the sequence “GATGATTGTTCTCCCAGCTGATGAATTTATGCGGTCGAGTAAACAAATTTTCCTAATCTTTCTGTTCAAGCGCCATCTAC”, the binding signal is 1.09 RPM ratio (pull-down/input).
With “GATGATTGTTCTCCCAGCTGATGAATTGCCAGGCTCGAGTAAACAAATTTTCCTAATCTTTCTGTTCAAGCGCCATCTAC”, the binding signal is 0.814 RPM ratio (pull-down/input).
With “GATGATTGTTCTCCCAGCTGATGAATTATTTGGATCGAGTAAACAAATTTTCCTAATCTTTCTGTTCAAGCGCCATCTAC” the figure was 1.29 RPM ratio (pull-down/input); with “GATGATTGTTCTCCCAGCTGATGAATTACACGAGTCGAGTAAACAAATTTTCCTAATCTTTCTGTTCAAGCGCCATCTAC”, 1.08 RPM ratio (pull-down/input); with “GATGATTGTTCTCCCAGCTGATGAATTTTGTATGTCGAGTAAACAAATTTTCCTAATCTTTCTGTTCAAGCGCCATCTAC”, 1.54 RPM ratio (pull-down/input).
In the case of “GATGATTGTTCTCCCAGCTGATGAATTCGAGTGGTCGAGTAAACAAATTTTCCTAATCTTTCTGTTCAAGCGCCATCTAC”, the binding signal was 0.752 RPM ratio (pull-down/input).
For the sequence “GATGATTGTTCTCCCAGCTGATGAATTCCGGCACTCGAGTAAACAAATTTTCCTAATCTTTCTGTTCAAGCGCCATCTAC”, the binding signal was 0.819 RPM ratio (pull-down/input).
In the case of “GATGATTGTTCTCCCAGCTGATGAATTATTGTGATCGAGTAAACAAATTTTCCTAATCTTTCTGTTCAAGCGCCATCTAC”, the binding signal was 1.76 RPM ratio (pull-down/input).
With “GATGATTGTTCTCCCAGCTGATGAATTTCCTGCCTCGAGTAAACAAATTTTCCTAATCTTTCTGTTCAAGCGCCATCTAC” the figure was 0.873 RPM ratio (pull-down/input).
On to “GATGATTGTTCTCCCAGCTGATGAATTGGTACAATCGAGTAAACAAATTTTCCTAATCTTTCTGTTCAAGCGCCATCTAC”, for which the binding signal was 1.33 RPM ratio (pull-down/input).
With “GATGATTGTTCTCCCAGCTGATGAATTAACCAGCTCGAGTAAACAAATTTTCCTAATCTTTCTGTTCAAGCGCCATCTAC” the figure was 0.867 RPM ratio (pull-down/input).

These data come from paper PMC12820563, “FoxP3 forms a head-to-head dimer in vivo and stabilizes its multimerization on adjacent microsatellites”.
